The values below come from publication PMC12150326 (The Journal of Organic Chemistry, 2025).

Where two headings read alike, the source gives them in different places.

For experiment [1], the system named is NCI-H322M. Format: cell-based, human. As to conditions: for GI50: Homo sapiens, NCI-H322M. The protocol:
(aR)-6, (aS)-6, (aS)-iso -6, and (aR)-iso -6 were submitted to the 60 Cell Screen panel and evaluated at 5 doses (100 μM, 10 μM, 1 μM, 0.1 μM, and 0.01 μM). […] The complete report from this submission is available at the publisher’s Web site as a separate Supporting Information file. For COMPARE analysis, TGI levels of response for (aR)-DM-MTC (6) and (aS)-iso-DM-MTC were compared to those of several established tubulin inhibitors previously tested in the NCI-60 screen.

Experiment [2] deals with NCI-H322M. More on the design: method as in NCI-60 database. As to conditions: NCI-H322M ref NCI-60 database, cited from earlier work.

In the experiment on NCI-H322M [1], `COc1cc(C)c(-c2ccc(OC)c(=O)cc2C)c(OC)c1OC` (single isomer, unassigned) [(aR)-6] yielded a Log10GI50 of -5.18 Molar, a Log10LC50 above -4.00 Molar, a Log10TGI above -4.00 Molar and a GI50 of 6.61 µM. The Log10GI50 with NCI-H322M [1] (listed as (aR)-DM-MTC) was -5.18 Molar.
In the experiment with NCI-H322M [1], `COc1cc(C)c(-c2ccc(=O)c(OC)cc2C)c(OC)c1OC` (single isomer, unassigned) [(aR)-iso-6] displayed a Log10GI50 above -4.00 Molar, a Log10LC50 above -4.00 Molar and a Log10TGI above -4.00 Molar.
Regarding `COc1cc(C)c(-c2ccc(OC)c(=O)cc2C)c(OC)c1OC` (single isomer, unassigned) [(aS)-6], in the experiment on NCI-H322M [1], the Log10GI50 was above -4.00 Molar, the Log10LC50 is given as above -4.00 Molar and the Log10TGI is above -4.00 Molar.
`COc1cc(C)c(-c2ccc(=O)c(OC)cc2C)c(OC)c1OC` (single isomer, unassigned) [(aS)-iso-6]: in the experiment on NCI-H322M [1], the Log10GI50 was -4.22 Molar, the Log10LC50 is recorded as above -4.00 Molar, the Log10TGI was above -4.00 Molar and growth was halved (GI50) at 60.3 µM. The same compound displayed a Log10GI50 in the experiment with NCI-H322M [1] ([…]) of -4.22 Molar.
Take `COc1cc2c(c(OC)c1OC)-c1ccc(OC)c(=O)cc1[C@@H](NC(C)=O)CC2` [Colchicine, (−)-Colchicine]: in the experiment with NCI-H322M [2], the GI50 was 0.06 µM, the Log10GI50 is listed as -7.21 Molar and the Log10LC50 is recorded as above -4.00 Molar. In addition, in the experiment on NCI-H322M [2] (listed as 757/1), the Log10TGI is listed as -7.40 Molar. Besides, the Log10GI50 in the experiment on NCI-H322M [2] (listed as 757/9) is -7.37 Molar. In addition, in the experiment with NCI-H322M [2] (listed as 757/21), the Log10GI50 was -7.21 Molar and the Log10TGI is reported as above -4.00 Molar.

As usually defined, the GI50 is the concentration that inhibits growth by half.
